Data as given in the supplement of paper PMC3334620.
Over roughly 33,000 sequences, “E-score (-0.5 to 0.5)” has its median near -0.04; the highest 2% begin near 0.36. Some of the results follow.

biological target: T1, Hmlalpha2 (UniProt P0CY09); test: PBM E-score (8-mer binding enrichment) (E-score (-0.5 to 0.5)); higher = stronger / more preferred TF binding; most listed sequences are background and not binding sites; details: protein concentration: 200 nM; construct: GST-full length
T1 sequence: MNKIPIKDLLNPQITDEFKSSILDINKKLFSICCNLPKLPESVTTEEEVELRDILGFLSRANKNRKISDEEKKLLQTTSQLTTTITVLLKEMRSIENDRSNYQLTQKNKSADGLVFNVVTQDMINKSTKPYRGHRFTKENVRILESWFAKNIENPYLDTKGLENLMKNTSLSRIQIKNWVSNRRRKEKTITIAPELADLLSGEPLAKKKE
How it was run: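 Using PURExpress in vitro transcription/translation, GST-tagged yeast transcription factors were made in full-length or DNA-binding-domain form. These were applied at about 100-200 nM to double-stranded universal all-10-mer Agilent arrays, and bound protein was detected with fluorescent anti-GST. Scans were normalised with masliner before the Universal PBM Analysis Suite assigned E-scores to ungapped eight-base words pooled with their reverse complements.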

Sequence | PBM E-score
AGACGCCG | -0.154
AGCGGCAG | -0.203
CCAATCAG | -0.323
CGTCACTA | -0.063
ACTAAGGC | -0.192
ACCTTTAG | -0.127
CCGTGTTA | 0.44
ATGTACTA | 0.397
ATAGAACA | 0.164
CCTGTTAA | 0.288
AGAGTGTA | 0.0904
AAAGGTCT | -0.109
ATTTCCCG | -0.0394
ACGCGGAT | 0.302
TAGAGGAA | -0.0993
AAAGCGCT | 0.109
ATCACGCA | 0.173
GTAGCGGA | -0.0459
CTGGTCGC | -0.127
CGTCGGGA | -0.116
ATTGGCAA | 0.092
GGTTACCA | -0.0486
CGAGCAAC | 0.0029
TCCATGAA | 0.043
GACGCTGA | -0.00698

Sequence | PBM E-score
GCCCCCGC | -0.332
ACGGCCAT | -0.177
GCTTGACA | 0.196
AACTGTGT | 0.333
AGCAAGCA | -0.139
ATTGTTAA | 0.269
CACCGCTA | -0.0146
CTGTTAAG | 0.255
TCACGTAA | 0.393
GTCGATTA | 0.199
CGGCCAAA | 0.0165
ACTTATTC | -0.00521
ACCCGGTC | -0.31
AAGCTTCG | -0.113
AAGTTGAT | 0.0578
GAGGGTGC | -0.292
CCGGCTTC | -0.291
AGTGTCTG | -0.0202
ACTGATGC | -0.255
CCTCTCTC | -0.327
CATAATCA | 0.192
TCGTGCAA | 0.278
CGCATGAC | -0.0353
CTGGCCCA | -0.273
AGGTGTCG | -0.248

Sequence | PBM E-score
CATCAGGA | -0.0998
AGCCGCTA | -0.246
AGACACCC | 0.0364
AATCAAGC | -0.063
CAACTTAC | 0.145
AATTAATA | 0.329
ATCACGTG | 0.172
ATAATATA | 0.285
GAGTGCGC | -0.205
CGCTCCAG | 0.0252
ATATGATA | 0.252
GGGAGGTA | -0.194
AAATTCCA | 0.223
GCACGGCA | -0.108
TCAGAGCA | -0.283
GACTTAAC | 0.103
ACTCAAAT | 0.0409
ACAACAAC | 0.316
ACGCTGTG | 0.312
GGCGCTAA | -0.219
GACTCCGC | -0.0817
CCTCTCAG | -0.259
CTTTGCAA | -0.0128
ACCCGTTG | 0.00752
ACCGGAAC | -0.233

Sequence | PBM E-score
AGACGTTG | -0.0957
AGTAGTTC | 0.0977
AGGGTTGC | -0.134
CACAGGAC | -0.022
CAAGCGCC | -0.207
AAATCGAT | 0.0888
ACTTTAGG | 0.0276
ACCTAGAG | -0.0756
GTCGGGCA | -0.152
CCAGCCAC | -0.105
CCCCGTAA | -0.0104
ATGAAACG | -0.0624
GAGCCTAC | -0.154
ATTATTGA | 0.0979
GAAAAGTC | -0.162
AAGAGAGG | -0.2
TACATGGA | 0.429
AAATGTTG | 0.0925
AGAATGCT | 0.0411
ATAATTCC | 0.0173
GTCCGGGA | -0.058
ACCTACCC | -0.176
CCAATATC | -0.316
ATCTCACA | 0.0174
TGCGAAAA | 0.261

Sequence | PBM E-score
CCTCACGA | -0.276
AGCAAAGC | -0.102
TAACATTA | 0.331
CACTTCGG | -0.165
GGTTCTCA | -0.0328
ATTATATG | 0.23
AGTGGCAG | -0.28
CCCCGTAG | -0.237
CTCAATGA | -0.0147
TAGGACCA | -0.0947
CGTGCGAC | 0.0281
CATCCAAA | 0.0919
AAGAAAGA | -0.0528
GGTGCCGA | -0.0679
CTAGAAAC | -0.0507
TGATCGCA | -0.0971
ACGGTCGG | -0.0798
AGCTCTCG | -0.158
ATCTGACA | 0.00704
CCATGTAG | 0.416
AATGCCCT | -0.233
CGTATCTA | 0.00186
CAGGTAAC | 0.0879
ACAGAAAC | 0.196
CGATATCG | 0.157

Sequence | PBM E-score
CCCTCAAC | -0.124
AGATGAGG | -0.29
GAAACCTC | -0.176
AGGAGTGC | -0.232
CCTCTCCG | -0.305
AGTGACAA | 0.0251
AGTAGGCA | -0.0234
TCACGACA | 0.116
ACGACTCG | -0.00304
AAGCCATT | 0.0732
AACTATTG | 0.145
TTACGAAA | 0.243
AGTAACCC | -0.0544
CCCAAAGC | -0.217
ATAGCTTC | -0.139
GATACTAC | 0.102
AGGAGGCC | -0.323
CTCGGGTC | -0.158
GAATATAA | -0.00557
CGGTAATA | -0.00682
ACGTAGCA | 0.0657
CGCCTTCC | -0.267
CGACGACC | -0.298
AAGGTTAA | 0.0903
ATTCCAAC | 0.072

Sequence | PBM E-score
GCCCGGCC | -0.295
GGCGGATA | -0.0488
AAACATTC | 0.133
AGCCGGAA | -0.0614
CGTGCGTA | 0.28
GCCAACCA | -0.308
AGATTAGG | -0.124
CGCGCTAA | 0.125
GAATGTAA | 0.372
CGAGCACA | 0.0673
AGCCTTTG | -0.248
ACAGCCGA | -0.099
AACGGAAT | 0.084
CTAAGATC | -0.0578
AGCGTTTC | -0.017
CCCAATAG | -0.109
GCGTCCGA | -0.0617
GGTAGGTA | 0.0354
ATCCTGTG | -0.00153
CCAGTCGG | -0.257
GATAGACA | 0.0354
AATAATTA | 0.288
